# Test results: the supplement of paper PMC7826260
# Some of the results follow. Cleavage of a single-stranded DNA pool by Rep nickase domains was read by sequencing (3 µM enzyme, 1 h, 37 °C); shown is the middle of each 90-letter strand. The score is log2 (uncut reads / reads without enzyme); uncut sequences lie near 0, cut ones below; no hit call is given. Reads are scaled to the total, so uncut sequences can rise above 0 when many others are cut.
# Columns and labels:
# Assay in all cases: uncleaved DNA left, log2 of reads against the no-enzyme library (log2 ratio); higher = less cleavage (more negative = more Rep cleavage of the k-mer); sequences stand for … in CTCGTCCG…ACCGGAGA
# [1] = tested on: T1, Rep nickase domain of Muscovy duck circovirus
# T1 sequence (residues 1-111 of Rep, tag left off): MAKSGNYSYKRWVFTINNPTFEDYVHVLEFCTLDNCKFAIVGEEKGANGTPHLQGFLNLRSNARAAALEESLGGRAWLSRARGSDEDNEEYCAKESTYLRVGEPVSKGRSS
# Experimental: (§1)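 A pool of 90-nt single-stranded DNAs with seven random bases just before the constant AC of the nick site (name = the seven bases) was cut by 3 µM recombinant His6-SUMO-tagged Rep nickase domain (300 nM DNA, 50 mM HEPES pH 8.0, 50 mM NaCl, 1 mM MnCl2, 1 h, 37 °C, three replicates). Uncut DNA was amplified and sequenced.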
# [2] = tested on: T2, Rep nickase domain of banana bunchy top virus
# T2 sequence (residues 1-94 of Rep, tag left off): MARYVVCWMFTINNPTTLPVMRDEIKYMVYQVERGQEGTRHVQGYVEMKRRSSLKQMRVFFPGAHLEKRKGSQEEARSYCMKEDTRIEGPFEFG
# Experimental: as §1
# [3] = tested on: T3, Rep nickase domain of cabbage leaf curl virus
# T3 sequence (residues 1-116 of Rep, tag left off): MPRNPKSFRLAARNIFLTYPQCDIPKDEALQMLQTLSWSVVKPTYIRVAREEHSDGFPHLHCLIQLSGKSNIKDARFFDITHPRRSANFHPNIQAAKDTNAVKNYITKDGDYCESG
# Experimental: as §1
# [4] = tested on: T4, Rep nickase domain of chickpea chlorotic dwarf virus
# T4 sequence (residues 1-124 of Rep, tag left off): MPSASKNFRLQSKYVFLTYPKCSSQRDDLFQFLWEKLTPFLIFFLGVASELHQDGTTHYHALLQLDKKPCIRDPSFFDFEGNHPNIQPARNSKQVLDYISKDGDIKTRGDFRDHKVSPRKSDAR
# Experimental: as §1
# [5] = tested on: T5, Rep nickase domain of faba bean necrotic yellows virus
# T5 sequence (residues 1-98 of Rep, tag left off): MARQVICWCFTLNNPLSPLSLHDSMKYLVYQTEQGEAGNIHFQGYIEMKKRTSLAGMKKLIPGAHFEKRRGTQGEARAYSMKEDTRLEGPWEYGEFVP
# Experimental: as §1
# [6] = tested on: T6, Rep nickase domain of maize striate mosaic virus
# T6 sequence (residues 1-117 of Rep, tag left off): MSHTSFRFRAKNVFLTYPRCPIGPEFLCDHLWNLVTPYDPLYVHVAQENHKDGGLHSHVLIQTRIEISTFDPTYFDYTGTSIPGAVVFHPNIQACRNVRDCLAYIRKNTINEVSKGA
# Experimental: as §1
# [7] = tested on: T7, Rep nickase domain of porcine circovirus 2
# T7 sequence (residues 2-116 of Rep, tag left off): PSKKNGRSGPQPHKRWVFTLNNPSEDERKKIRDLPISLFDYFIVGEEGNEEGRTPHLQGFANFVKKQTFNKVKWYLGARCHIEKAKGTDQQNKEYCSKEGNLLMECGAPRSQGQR
# Experimental: as §1
# [8] = tested on: T8, Rep nickase domain of tomato yellow leaf curl virus
# T8 sequence (residues 1-136 of Rep, tag left off): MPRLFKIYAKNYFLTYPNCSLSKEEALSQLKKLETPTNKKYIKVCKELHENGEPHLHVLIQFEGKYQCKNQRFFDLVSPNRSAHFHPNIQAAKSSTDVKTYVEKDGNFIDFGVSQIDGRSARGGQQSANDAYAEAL
# Experimental: as §1
# [9] = tested on: T9, Rep nickase domain of wheat dwarf virus
# T9 sequence (residues 1-137 of Rep, tag left off): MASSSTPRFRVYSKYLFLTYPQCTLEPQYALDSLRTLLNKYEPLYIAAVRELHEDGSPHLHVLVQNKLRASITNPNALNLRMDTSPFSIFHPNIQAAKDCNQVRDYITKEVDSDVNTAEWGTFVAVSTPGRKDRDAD
# Experimental: as §1
Sequence,uncleaved DNA left (log2) [1],uncleaved DNA left (log2) [2],uncleaved DNA left (log2) [3],uncleaved DNA left (log2) [4],uncleaved DNA left (log2) [5],uncleaved DNA left (log2) [6],uncleaved DNA left (log2) [7],uncleaved DNA left (log2) [8],uncleaved DNA left (log2) [9]
GGATCAA,0.0352,0.121,0.694,1.64,0.026,2.01,0.129,0.0135,0.118
AACCCAC,-0.0543,-0.115,0.117,-0.14,-0.0717,-0.288,-0.421,-0.107,0.0018
GGTGTAG,0.12,0.0872,0.0247,0.264,0.118,-0.199,0.164,0.0795,-0.0204
GATGTTC,-0.00801,-0.026,0.234,0.161,-0.00732,0.967,0.0397,0.128,0.0266
GGAGGTA,0.115,0.108,0.673,1.45,0.103,1.99,0.258,0.14,0.123
ACTATAA,-0.0331,0.0193,-0.356,-0.286,-0.029,-0.683,0.000933,-0.154,-0.0987
TTCTCAC,0.0433,0.0387,0.273,-0.0809,0.029,-0.12,0.0404,0.052,0.114
AGAATTA,0.0299,-0.0775,0.103,-0.836,-0.0185,-0.177,-0.223,-0.0223,0.0188
TCCTGGA,0.12,0.075,0.0141,-0.0545,0.0276,-0.307,0.00499,-0.00678,0.0637
ATTCGTC,-0.0925,-0.107,-0.348,-0.498,-0.0269,-1.14,0.0654,-0.0189,-0.128
TTCTTGG,0.0245,-0.0207,0.0741,0.22,-0.00943,-0.101,0.0116,-0.0616,-0.0322
TTCATAT,0.162,0.032,0.356,-0.35,0.136,-0.202,0.0272,0.114,0.102
GACGCTC,-0.204,-0.169,0.142,0.0903,-0.139,0.206,-0.131,-0.143,-0.152
CGCGGTA,-0.0245,0.0225,-0.24,-0.529,-0.114,-0.575,-0.0115,0.0758,0.00584
AACACCG,0.0472,0.0898,-0.792,-0.218,0.0824,-0.819,0.154,-0.0514,0.0373
ACTAACA,-0.0794,0.00498,-0.626,-2.06,0.0208,-0.886,-0.0513,-0.122,0.00425
TGTGATA,0.101,0.0479,0.286,0.672,0.172,1.44,0.0755,0.0094,0.0424
GGCTAGG,0.114,0.153,0.373,1.07,0.0575,1.43,0.239,0.121,0.0797
TCCACAG,-0.084,0.022,-0.566,-0.909,0.0339,-0.992,0.123,-0.0458,-0.0127

Sequence,uncleaved DNA left (log2) [1],uncleaved DNA left (log2) [2],uncleaved DNA left (log2) [3],uncleaved DNA left (log2) [4],uncleaved DNA left (log2) [5],uncleaved DNA left (log2) [6],uncleaved DNA left (log2) [7],uncleaved DNA left (log2) [8],uncleaved DNA left (log2) [9]
CGGTCAG,-0.0672,0.0704,0.262,1.27,-0.000205,1.09,0.0677,-0.0284,0.00386
GAAATAC,-0.00142,-0.0965,0.149,0.266,-0.0177,0.468,-0.0115,-0.0224,-0.0469
CAACCAG,-0.154,-0.0764,-0.826,-1.15,-0.0219,-1.24,-0.793,-0.0959,-0.204
CCGCTCA,-0.024,-0.0895,-0.0679,-0.913,-0.223,-0.481,-0.0821,-0.0151,-0.15
GTGGCTA,0.00475,-0.127,0.351,1.05,0.0173,1.82,0.0247,0.00211,0.00419
GTGGCTT,0.111,0.0141,0.689,1.42,0.0284,2.07,0.0337,0.00265,0.00488
GGAAGGG,0.121,0.0194,0.234,0.617,0.000307,0.242,0.227,0.011,-0.0966
GTTAAAG,-0.0705,-0.0728,-0.211,-0.185,-0.0251,-0.816,0.0234,0.0119,-0.0329
ATGCATC,-0.132,-0.106,-0.112,-0.194,-0.149,-1.04,-0.219,-0.071,-0.0525
CGATGGT,-0.0852,0.00533,0.108,0.426,0.0949,0.951,-0.235,-0.00295,0.135
CGCTGCG,-0.0898,-0.109,-0.475,0.867,0.0366,-0.124,0.0758,-0.198,-0.0518
GCGTGGT,-0.217,-0.0896,-0.0202,0.0798,-0.101,0.33,-2.18,-0.116,-0.22
GTGCGTT,0.0463,0.057,-0.266,-0.041,0.0883,-0.258,0.00899,0.0921,-0.00209
ACCACTT,0.0325,-0.0431,-0.258,-2.88,0.0414,-0.603,-0.255,-0.0457,-0.0715
TATGGGA,0.144,-0.0342,0.265,0.492,0.106,-0.0456,0.11,0.0531,0.0668
GTTAAAT,0.147,0.171,0.434,0.992,0.089,1.73,0.114,0.183,0.21
CCTCGGG,0.143,0.00785,-0.138,0.085,-0.0188,-0.708,0.118,0.084,-0.0309
AGGTGAG,0.116,-0.0464,-0.429,-0.248,-0.0776,-0.705,0.0671,0.0588,-0.054
CATATGT,0.123,-0.15,-0.0169,-0.587,0.0687,-0.888,-0.286,0.129,0.0654

Sequence,uncleaved DNA left (log2) [1],uncleaved DNA left (log2) [2],uncleaved DNA left (log2) [3],uncleaved DNA left (log2) [4],uncleaved DNA left (log2) [5],uncleaved DNA left (log2) [6],uncleaved DNA left (log2) [7],uncleaved DNA left (log2) [8],uncleaved DNA left (log2) [9]
ATTTTGT,-0.62,-0.372,-0.394,-0.99,-0.00681,-1.26,-1.14,-0.00771,-0.136
TGGACTC,0.00436,0.11,0.824,1.83,-0.129,2.19,0.0566,0.0512,0.197
CAACAGC,0.122,0.113,-0.255,-0.9,0.159,-0.828,0.307,0.0714,0.155
TCTTACC,-3.18,-0.292,-1.3,-2.66,-0.971,-0.513,-3.04,0.0667,-1.66
GCGAAAG,-0.0827,0.0205,-0.19,0.413,0.00337,-0.0528,0.139,0.088,0.00498
GTACAAT,0.0116,0.0563,0.357,0.885,0.238,1.7,0.0915,-0.0167,0.139
ACAAGTG,0.00443,0.0207,-0.594,-0.223,0.107,-0.998,0.206,0.0414,-0.0254
TACATAA,-0.0639,-0.0789,-0.319,-1.22,-0.139,-0.796,-0.174,-0.041,-0.0124
TCGATTC,0.00932,-0.0933,0.169,-0.101,-0.0876,-0.542,0.0592,0.0438,0.029
AGCCTTT,0.0444,-0.0921,0.177,-0.91,-0.0163,0.341,-0.524,-0.138,-0.0652
TCCCAGG,0.116,0.0569,0.5,1.31,0.0242,1.73,0.0498,-0.0917,-0.0556
CACTGAT,-0.533,-0.653,-0.318,-0.108,-0.18,0.674,-3.46,-0.0962,-0.072
GAAGTGG,0.0695,-0.095,0.0289,0.397,0.0252,-0.0239,0.137,0.0432,-0.0445
AAGCAGC,0.106,-0.0139,-0.175,-0.44,0.0705,-0.751,0.14,-0.0199,-0.0103
TAATAAT,-4.12,-3.45,-4.68,-3.31,-1.19,-4.15,-4.37,-3.61,-4.47
ATTCTGT,-0.0584,-0.142,-0.18,-0.329,-0.0397,-0.337,-0.378,-0.133,-0.0973
TGTGGAA,-0.0635,-0.116,0.364,0.835,-0.057,1.36,-0.0608,-0.0367,-0.00295
AGCCCCC,0.000891,-0.116,0.5,0.926,-0.0431,1.25,-0.126,-0.0531,0.104
